Data on 17 compounds can be found in patent publication US11420968B2 (priority 2018, dated 2022).

The test system of one experiment is RS4;11 cells. As to the kind of experiment: cells. As to conditions: Homo sapiens.
For the next experiment, the system named is Molt-4 cells. As to the kind of experiment: cells. As to conditions: Homo sapiens, MOLT-4, read-out: Cellular activity (IC50, nM) Molt-4.
Where [1] appears, read: RS4-11, 48 h, read-out: Cellular activity (IC50, nM) RS4;11.
[2] abbreviates: RS4-11, 48 h, read-out: Cellular activity (IC50, nM) RS4, 11.

SMILES strings stand for the structures. Like-named read-outs stand apart in the source and are kept apart here.

With `C[C@]1(O)CC[C@H](CNc2ccc(S(=O)(=O)NC(=O)c3ccc(-c4ccc(N5CC(F)(F)CC5c5ccccc5C5CC5)cc4)cc3Oc3cnc4[nH]ccc4c3)cc2[N+](=O)[O-])CC1` (single isomer, unassigned) [Example G133, (R or S)-3-((1H-pyrrolo[2,3-b]pyridin-5-yl)oxy)-4′-(2-(2-cyclopropylphenyl)-4,4-difluoropyrrolidin-1-yl)-N-((4-((((1r,4r)-4-hydroxy-4-methylcyclohexyl)methyl)amino)-3-nitrophenyl)sulfonyl)-[1,1′-biphenyl]-4-carboxamide], the values for the IC50 in the experiment with RS4;11 cells (setting [1]) and in the experiment on Molt-4 cells were 1.5 nM and 392 nM, respectively.
The like results for `O=C(NS(=O)(=O)c1ccc(NCC2CCOCC2)c([N+](=O)[O-])c1)c1ccc(N2CCC3(CC2)CC(N2CCCCCC2c2ccccc2C2CC2)C3)cc1Oc1cnc2[nH]ccc2c1` (centres unmarked) [Example F95, 2-((1H-pyrrolo[2,3-b]pyridin-5-yl)oxy)-4-(2-(2-(2-cyclopropylphenyl)azepan-1-yl)-7-azaspiro[3.5]nonan-7-yl)-N-((3-nitro-4-(((tetrahydro-2H-pyran-4-yl)methyl)amino)phenyl)sulfonyl)benzamide] were, in that order, 7.8 nM and 4170 nM.
Consider `O=C(NS(=O)(=O)c1ccc(NC[C@H]2CN(C3COC3)CCO2)c([N+](=O)[O-])c1)c1ccc(C2=CCC(N3CCCC3c3ccccc3C3CC3)CC2)cc1Oc1cnc2[nH]ccc2c1` (stereo partly drawn) [Example G111, 3-((1H-pyrrolo[2,3-b]pyridin-5-yl)oxy)-4′-(2-(2-cyclopropylphenyl)pyrrolidin-1-yl)-N-((3-nitro-4-((((S)-4-(oxetan-3-yl)morpholin-2-yl)methyl)amino)phenyl)sulfonyl)-2′,3′,4′,5′-tetrahydro-[1,1′-biphenyl]-4-carboxamide], for which the results for the half-inhibitory concentration (IC50) with RS4;11 cells (setting [2]) and in the experiment with Molt-4 cells were 253 nM and > 10000 nM, respectively.
The corresponding values for `CC(C)Oc1ccccc1C1CCCN1C1CC=C(c2ccc(C(=O)NS(=O)(=O)c3ccc(NCC4CCOCC4)c([N+](=O)[O-])c3)c(Oc3cnc4[nH]ccc4c3)c2)CC1` (centres unmarked) [Example C41, 3-((1H-pyrrolo[2,3-b]pyridin-5-yl)oxy)-4′-(2-(2-isopropoxyphenyl)pyrrolidin-1-yl)-N-((3-nitro-4-(((tetrahydro-2H-pyran-4-yl)methyl)amino)phenyl)sulfonyl)-2′,3′,4′,5′-tetrahydro-[1,1′-biphenyl]-4-carboxamide] are 122 nM and > 10000 nM.
Take `CN(C)Cc1ccccc1[C@H]1CCCN1c1ccc(-c2ccc(C(=O)NS(=O)(=O)c3ccc(NCC4CCOCC4)c([N+](=O)[O-])c3)c(Oc3cnc4[nH]ccc4c3)c2)cc1` [Example A129, (R)-3-((1H-pyrrolo[2,3-b]pyridin-5-yl)oxy)-4′-(2-(2-((dimethylamino)methyl)phenyl)pyrrolidin-1-yl)-N-((3-nitro-4-(((tetrahydro-2H-pyran-4-yl)methyl)amino)phenyl)sulfonyl)-[1,1′-biphenyl]-4-carboxamide]: the IC50 in the experiment with RS4;11 cells (setting [1]) amounted to 45 nM; in the experiment with Molt-4 cells, 4350 nM.
The corresponding values for `CC1=CCC(CNc2ccc(S(=O)(=O)NC(=O)c3ccc(-c4ccc(N5CCC[C@@H]5c5ccccc5C5CC5)cc4)cc3Oc3cnc4[nH]ccc4c3)cc2[N+](=O)[O-])CC1` (stereo partly drawn) [Example G102, 3-((1H-pyrrolo[2,3-b]pyridin-5-yl)oxy)-4′-((R)-2-(2-cyclopropylphenyl)pyrrolidin-1-yl)-N-((4-(((4-methylcyclohex-3-en-1-yl)methyl)amino)-3-nitrophenyl)sulfonyl)-[1,1′-biphenyl]-4-carboxamide] are 861 nM and > 10000 nM.
Regarding `CN1CC=C(c2ccccc2[C@H]2CCCN2c2ccc(-c3ccc(C(=O)NS(=O)(=O)c4ccc(NCC5(F)CCOCC5)c([N+](=O)[O-])c4)c(Oc4cnc5[nH]ccc5c4)c3)cc2)CC1` [Example G119, (R)-3-((1H-pyrrolo[2,3-b]pyridin-5-yl)oxy)-N-((4-(((4-fluorotetrahydro-2H-pyran-4-yl)methyl)amino)-3-nitrophenyl)sulfonyl)-4′-(2-(2-(1-methyl-1,2,3,6-tetrahydropyridin-4-yl)phenyl)pyrrolidin-1-yl)-[1,1′-biphenyl]-4-carboxamide], the 50% inhibitory concentration (IC50) with RS4;11 cells (setting [1]) stood at 3.7 nM; in the experiment on Molt-4 cells, 7850 nM.
For `CCc1ccccc1[C@@H]1CCCN1C1CC=C(c2ccc(C(=O)NS(=O)(=O)c3ccc(NCC4(F)CCOCC4)c([N+](=O)[O-])c3)c(Oc3cnc4[nH]ccc4c3)c2)CC1` (stereo partly drawn) [Example G90-S, 3-((1H-pyrrolo[2,3-b]pyridin-5-yl)oxy)-4′-((S)-2-(2-ethylphenyl)pyrrolidin-1-yl)-N-((4-(((4-fluorotetrahydro-2H-pyran-4-yl)methyl)amino)-3-nitrophenyl)sulfonyl)-2′,3′,4′,5′-tetrahydro-[1,1′-biphenyl]-4-carboxamide], the results for the half-maximal inhibitory concentration (IC50) in the experiment with RS4;11 cells (setting [2]) and in the experiment with Molt-4 cells were 11 nM and 6780 nM, respectively.
Regarding `O=C(NS(=O)(=O)c1ccc(NCC2CCOCC2)c([N+](=O)[O-])c1)c1ccc(C2=CCC(N3CCCC3c3cccc(Cl)c3C3CC3)CC2)cc1Oc1cnc2[nH]ccc2c1` (centres unmarked) [Example C51, 3-((1H-pyrrolo[2,3-b]pyridin-5-yl)oxy)-4′-(2-(3-chloro-2-cyclopropylphenyl)pyrrolidin-1-yl)-N-((3-nitro-4-(((tetrahydro-2H-pyran-4-yl)methyl)amino)phenyl)sulfonyl)-2′,3′,4′,5′-tetrahydro-[1,1′-biphenyl]-4-carboxamide], the IC50 in the experiment on RS4;11 cells (setting [2]) stood at 59 nM; in the experiment on Molt-4 cells, 9480 nM.
Take `CC1=CC[C@@H](CNc2ccc(S(=O)(=O)NC(=O)c3ccc(N4CCC5(CC4)CC(N4CCC[C@H]4c4ccccc4C(C)C)C5)cc3Oc3cnc4[nH]ccc4c3)cc2[N+](=O)[O-])CC1` [Example F103, 2-((1H-pyrrolo[2,3-b]pyridin-5-yl)oxy)-4-(2-((S)-2-(2-isopropylphenyl)pyrrolidin-1-yl)-7-azaspiro[3.5]nonan-7-yl)-N-((4-((((S)-4-methylcyclohex-3-en-1-yl)methyl)amino)-3-nitrophenyl)sulfonyl)benzamide]: the half-inhibitory concentration (IC50) in the experiment on RS4;11 cells (setting [1]) is 8.9 nM; in the experiment on Molt-4 cells, > 10000 nM.
For the compound `O=C(NS(=O)(=O)c1ccc(NCC2CCOCC2)c([N+](=O)[O-])c1)c1ccc(N2CC3(CN(CC4CCCN4c4ccccc4C4CC4)C3)C2)cc1Oc1cnc2[nH]ccc2c1` (centres unmarked) [Example F114, 2-((1H-pyrrolo[2,3-b]pyridin-5-yl)oxy)-4-(6-((1-(2-cyclopropylphenyl)pyrrolidin-2-yl)methyl)-2,6-diazaspiro[3.3]heptan-2-yl)-N-((3-nitro-4-(((tetrahydro-2H-pyran-4-yl)methyl)amino)phenyl)sulfonyl)benzamide], the half-inhibitory concentration (IC50) in the experiment with RS4;11 cells (setting [1]) was determined as 152 nM; with RS4;11 cells (RS4-11, read-out: Cellular activity (IC50, nM) RS4, 11), 152 nM; in the experiment on Molt-4 cells, 2960 nM.
On to `O=C(NS(=O)(=O)c1ccc(NCC2CCOCC2)c([N+](=O)[O-])c1)c1ccc(C2=CCC(N3CCCC3c3ccccc3C3CC3)CC2)cc1-n1ncc2nc3[nH]ccc3cc21` (centres unmarked) [Example H3, 4′-(2-(2-cyclopropylphenyl)pyrrolidin-1-yl)-N-((3-nitro-4-(((tetrahydro-2H-pyran-4-yl)methyl)amino)phenyl)sulfonyl)-3-(pyrazolo[4,3-b]pyrrolo[3,2-e]pyridin-1(5H)-yl)-2′,3′,4′,5′-tetrahydro-[1,1′-biphenyl]-4-carboxamide], for which the figures for the IC50 in the experiment on RS4;11 cells (setting [2]) and with Molt-4 cells were 409 nM and > 10000 nM, respectively.
Turning to `O=C(NS(=O)(=O)c1ccc(NCC2(F)CCN(C3COC3)CC2)c([N+](=O)[O-])c1)c1ccc(-c2ccc(N3CCC[C@@H]3c3ccccc3C3CC3)cc2)cc1Oc1cnc2[nH]ccc2c1` [Example G98, (R)-3-((1H-pyrrolo[2,3-b]pyridin-5-yl)oxy)-4′-(2-(2-cyclopropylphenyl)pyrrolidin-1-yl)-N-((4-(((4-fluoro-1-(oxetan-3-yl)piperidin-4-yl)methyl)amino)-3-nitrophenyl)sulfonyl)-[1,1′-biphenyl]-4-carboxamide], the half-inhibitory concentration (IC50) in the experiment on RS4;11 cells (setting [2]) turned out to be 5.6 nM; in the experiment with Molt-4 cells, 1350 nM.
Turning to `CC(C)c1ccccc1C1CCCN1C1CCC(c2ccc(C(=O)NS(=O)(=O)c3ccc(NCC4CCOCC4)c([N+](=O)[O-])c3)c(Oc3cnc4[nH]ccc4c3)c2)CC1` (stereo not drawn) [Example D5, trans- or cis-2-((1H-pyrrolo[2,3-b]pyridin-5-yl)oxy)-4-(4-(2-(2-isopropylphenyl)pyrrolidin-1-yl)cyclohexyl)-N-((3-nitro-4-(((tetrahydro-2H-pyran-4-yl)methyl)amino)phenyl)sulfonyl)benzamide], the IC50 in the experiment with RS4;11 cells (setting [2]) was 43 nM; with Molt-4 cells, 7440 nM.
For the compound `CC1(C)CC(c2ccccc2C2CC2)N(C2CC3(CCN(c4ccc(C(=O)NS(=O)(=O)c5ccc(NCC6CCOCC6)c([N+](=O)[O-])c5)c(Oc5cnc6[nH]ccc6c5)c4)CC3)C2)C1` (centres unmarked) [Example F82, 2-((1H-pyrrolo[2,3-b]pyridin-5-yl)oxy)-4-(2-(2-(2-cyclopropylphenyl)-4,4-dimethylpyrrolidin-1-yl)-7-azaspiro[3.5]nonan-7-yl)-N-((3-nitro-4-(((tetrahydro-2H-pyran-4-yl)methyl)amino)phenyl)sulfonyl)benzamide], the values for the IC50 in the experiment on RS4;11 cells (setting [1]) and in the experiment on Molt-4 cells were 7.6 nM and 2490 nM, respectively.
Regarding `O=C(NS(=O)(=O)c1ccc(OCC2CCC(O)CC2)c([N+](=O)[O-])c1)c1ccc(C2=CCC(N3CCC[C@H]3c3ccccc3C3CC3)CC2)cc1Oc1cnc2[nH]ccc2c1` (stereo partly drawn) [Example G81a, (cis- or trans-) 3-((1H-pyrrolo[2,3-b]pyridin-5-yl)oxy)-4′-((S)-2-(2-cyclopropylphenyl)pyrrolidin-1-yl)-N-((4-((4-hydroxycyclohexyl)methoxy)-3-nitrophenyl)sulfonyl)-2′,3′,4′,5′-tetrahydro-[1,1′-biphenyl]-4-carboxamide], the IC50 is 49 nM in the experiment with RS4;11 cells (setting [2]) and 5490 nM with Molt-4 cells.
The like results for `O=C(NS(=O)(=O)c1ccc(NCC2CCOCC2)c([N+](=O)[O-])c1)c1ccc(-c2ccc(CN3CCCC3c3ccc(Cl)cc3)cc2)cc1Oc1cnc2[nH]ccc2c1` (centres unmarked) [Example B5, 3-((1H-pyrrolo[2,3-b]pyridin-5-yl)oxy)-4′-((2-(4-chlorophenyl)pyrrolidin-1-yl)methyl)-N-((3-nitro-4-(((tetrahydro-2H-pyran-4-yl)methyl)amino)phenyl)sulfonyl)-[1,1′-biphenyl]-4-carboxamide] were, in that order, 736 nM and 5090 nM.
